Source: ChEMBL document CHEMBL5724801, “EUbOPEN Chemogenomics Library - Multiplex” (2024)
The source holds more than one record for some entries. The list is limited to them. An entry can have further records. The records of an entry are repeats (runs, samples, wells, individuals or studies). Marks such as [2022-09] give the month of the run.

What was measured:
Type in all cases: toxicity, cell-based
Fibroblast = assay: Multiplex assay against human fibroblast
In short: (§1)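 On a CQ1 microscope at 37°C and 5% CO2, live cells were imaged after compound addition. They had been stained at seeding with Hoechst33342, BioTracker Green Microtubule Cytoskeleton Dye, MitoTracker Red and Annexin V Alexa Fluor 680. CellPathfinder machine-learning gating assigned cells to Hoechst high-intensity objects or normal cells, normal cells to healthy, pyknosed or fragmented nuclei, and pyknosed cells to mitotic or apoptotic. Tubulin, mitochondrial-mass and membrane-permeability phenotypes are per cents of healthy-nucleus cells.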

HEK-293T = assay: Multiplex assay against HEK293T; details: human; in short: as §1
U2OS = assay: Multiplex assay against U2OS; details: human; in short: as §1
[1] = 12 h, 1 µM, compound concentration 1 uM
[2] = 12 h, 10 µM, compound concentration 10 uM
[3] = 24 h, 1 µM, compound concentration 1 uM
[4] = 24 h, 10 µM, compound concentration 10 uM
[5] = 48 h, 1 µM, compound concentration 1 uM
[6] = 48 h, 10 µM, compound concentration 10 uM

Cc1cc(O)c(-c2ccc([C@@H](C)CN(C)C)cc2)c2c1[nH]c(=O)c1sccc12
Population Apoptotic (%) (Fibroblast; [1]): 59% and 50% and 16.13%, 27.59% [2024-01] | Population Fragmented Nuclei (%) (Fibroblast; [1]): 12% and 22% and 11.76%, 4.76% [2024-01] | Population Fragmented Nuclei (%) (Fibroblast; [2]): 19% and 28% and 12.18%, 3.75% [2024-01] | Population Apoptotic (%) (Fibroblast; [3]): 45% and 52% and 14.63%, 15.38% [2024-01] | Population Fragmented Nuclei (%) (Fibroblast; [3]): 11% and 28% and 10.71%, 6.94% [2024-01] | Population Fragmented Nuclei (%) (Fibroblast; [4]): 11% and 30% and 12.5%, 3.83% [2024-01] | Population Fragmented Nuclei (%) (Fibroblast; [5]): 19% and 31% and 22.29%, 5.38% [2024-01] | Population Membrane Permeable-Phenotype (%) (Fibroblast; [5]): 1% and 2% and 4.65%, 19.39% [2024-01] | Population Fragmented Nuclei (%) (Fibroblast; [6]): 17% and 39% and 14.52%, 3.21% [2024-01] | Population Pyknosed Nuclei (%) (Fibroblast; [6]): 29% and 16% and 40.32%, 48.66% [2024-01] | Population Apoptotic (%) (HEK-293T; [1]): 63% and 59% and 11.11%, 10.57% [2024-01] | Population Fragmented Nuclei (%) (HEK-293T; [1]): 14% and 8% and 0.48%, 2.14% [2024-01] | Population Healthy Nuclei (%) (HEK-293T; [1]): 49% and 66% and 25.96%, 10% [2024-01] | Population Hoechst High Intensity Objects (%) (HEK-293T; [1]): 27% and 28% and 0% [2024-01] | Population Mitochondria Different-Phenotype (%) (HEK-293T; [1]): 90% and 91% and 44.44%, 7.14% [2024-01] | Population Pyknosed Nuclei (%) (HEK-293T; [1]): 36% and 25% and 73.56%, 87.86% [2024-01] | Population Apoptotic (%) (HEK-293T; [2]): 53% and 70% and 21.18%, 37.21% [2024-01] | Population Healthy Nuclei (%) (HEK-293T; [2]): 44% and 60% and 21.88%, 7.8% [2024-01] | Population Hoechst High Intensity Objects (%) (HEK-293T; [2]): 41% and 28% and 0% [2024-01] | Population Mitochondria Different-Phenotype (%) (HEK-293T; [2]): 100% and 94% and 38.78%, 27.27% [2024-01] | Population Healthy Nuclei (%) (HEK-293T; [3]): 60% and 70% and 34.65%, 11.03% [2024-01] | Population Pyknosed Nuclei (%) (HEK-293T; [3]): 30% and 19% and 62.72%, 86.03% [2024-01] | Population Healthy Nuclei (%) (HEK-293T; [4]): 67% and 69% and 24.88%, 5.33% [2024-01] | Population Hoechst High Intensity Objects (%) (HEK-293T; [4]): 36% and 25% and 0.48%, 0% [2024-01] | Population Pyknosed Nuclei (%) (HEK-293T; [4]): 24% and 23% and 74.16%, 93.33% [2024-01] | Population Fragmented Nuclei (%) (HEK-293T; [5]): 13% and 16% and 3.92%, 1.48% [2024-01] | Population Healthy Nuclei (%) (HEK-293T; [5]): 65% and 67% and 36.76%, 13.33% [2024-01] | Population Pyknosed Nuclei (%) (HEK-293T; [5]): 20% and 16% and 59.31%, 85.19% [2024-01] | Population Healthy Nuclei (%) (HEK-293T; [6]): 64% and 58% and 30.77%, 5.67% [2024-01] | Population Hoechst High Intensity Objects (%) (HEK-293T; [6]): 40% and 34% and 0.48%, 0% [2024-01] | Population Pyknosed Nuclei (%) (HEK-293T; [6]): 20% and 28% and 66.83%, 94.33% [2024-01] | Population Fragmented Nuclei (%) (U2OS; [1]): 38% and 25% and 4.49%, 7.74% [2024-01] | Population Membrane Permeable-Phenotype (%) (U2OS; [1]): 21% and 9% and 4.57%, 6.67% [2024-01] | Population Mitochondria Different-Phenotype (%) (U2OS; [1]): 17% and 14% and 0.57%, 15.24% [2024-01] | Population Mitotic Cells (%) (U2OS; [1]): 19% and 30% and 61.79%, 54% [2024-01] | Population Pyknosed Nuclei (%) (U2OS; [1]): 12% and 11% and 39.42%, 29.76% [2024-01] | Total Cell Count (U2OS; [1]): 252 and 89 and 313, 168 [2024-01] | Population Fragmented Nuclei (%) (U2OS; [2]): 28% and 20% and 1.74%, 2.82% [2024-01] | Population Membrane Permeable-Phenotype (%) (U2OS; [2]): 54% and 22% and 5.1%, 24.32% [2024-01] | Population Mitochondria Different-Phenotype (%) (U2OS; [2]): 62% and 61% and 6.12%, 40.54% [2024-01] | Total Cell Count (U2OS; [2]): 222 and 110 and 344, 142 [2024-01] | Population Fragmented Nuclei (%) (U2OS; [3]): 43% and 41% and 12.37%, 15.15% [2024-01] | Population Membrane Permeable-Phenotype (%) (U2OS; [3]): 20% and 15% and 2.22%, 7.32% [2024-01] | Population Mitochondria Different-Phenotype (%) (U2OS; [3]): 25% and 21% and 2.22%, 19.51% [2024-01] | Population Mitotic Cells (%) (U2OS; [3]): 7% and 0% and 54.76%, 39.39% [2024-01] | Population Pyknosed Nuclei (%) (U2OS; [3]): 21% and 17% and 72.16%, 60% [2024-01] | Total Cell Count (U2OS; [3]): 256 and 83 and 292, 165 [2024-01] | Population Fragmented Nuclei (%) (U2OS; [4]): 36% and 40% and 7.47%, 6.92% [2024-01] | Population Fragmented Nuclei (%) (U2OS; [5]): 53% and 64% and 13.81%, 12.35% [2024-01] | Population Hoechst High Intensity Objects (%) (U2OS; [5]): 17% and 15% and 0.37%, 1.16% [2024-01] | Population Membrane Permeable-Phenotype (%) (U2OS; [5]): 23% and 35% and 12.5%, 3.57% [2024-01] | Population Mitochondria Different-Phenotype (%) (U2OS; [5]): 25% and 35% and 8.33%, 3.57% [2024-01] | Population Mitotic Cells (%) (U2OS; [5]): 3% and 0% and 27.05%, 16.53% [2024-01] | Population Pyknosed Nuclei (%) (U2OS; [5]): 27% and 15% and 77.24%, 71.18% [2024-01] | Population Fragmented Nuclei (%) (U2OS; [6]): 50% and 54% and 7.3%, 4.1% [2024-01] | Population Hoechst High Intensity Objects (%) (U2OS; [6]): 20% and 15% and 1.08%, 0.81% [2024-01] | Population Membrane Permeable-Phenotype (%) (U2OS; [6]): 25% and 64% and 5.13%, 8.33% [2024-01]

O=C1N=C(NCc2cccs2)S/C1=C\c1ccc2ncccc2c1
Population Fragmented Nuclei (%) (Fibroblast; [1]): 13.04% and 2.96% | Population Fragmented Nuclei (%) (Fibroblast; [2]): 20.38% and 6.63% | Population Healthy Nuclei (%) (HEK-293T; [1]): 55.63% and 16.06% | Population Tubulin-Different-Phenotype (%) (HEK-293T; [1]): 6.36% and 31.82% | Total Cell Count (HEK-293T; [3]): 425 and 139 | Population Tubulin-Different-Phenotype (%) (HEK-293T; [5]): 2.51% and 34.78% | Total Cell Count (HEK-293T; [5]): 778 and 200 | Population Pyknosed Nuclei (%) (HEK-293T; [6]): 6.91% and 37.91% | Population Tubulin-Different-Phenotype (%) (HEK-293T; [6]): 15.69% and 78.16% | Population Mitochondria Different-Phenotype (%) (U2OS; [1]): 0.51% and 14.47% | Population Mitochondria Different-Phenotype (%) (U2OS; [2]): 0.36% and 48.82% | Population Mitochondria Different-Phenotype (%) (U2OS; [4]): 2.64% and 44.04% | Population Mitochondria Different-Phenotype (%) (U2OS; [6]): 1.68% and 38.46% | Population Tubulin-Different-Phenotype (%) (U2OS; [6]): 13.41% and 2.2%

Cl.Cl.N#Cc1ccc(O[C@@H]2c3ccccc3C[C@H]2N2CCC[C@@H](N)C2)c(Cl)c1
Population Apoptotic (%) (Fibroblast; [3]): 2% and 22.22% | Population Pyknosed Nuclei (%) (Fibroblast; [3]): 30.86% and 8.78% | Population Fragmented Nuclei (%) (Fibroblast; [6]): 20.69% and 6.77% | Population Healthy Nuclei (%) (HEK-293T; [1]): 50.59% and 8.77% | Population Healthy Nuclei (%) (HEK-293T; [3]): 68.32% and 14.41% | Total Cell Count (HEK-293T; [3]): 506 and 111 | Population Healthy Nuclei (%) (HEK-293T; [4]): 37.11% and 7.91% | Population Apoptotic (%) (HEK-293T; [5]): 9.38% and 33.87% | Population Pyknosed Nuclei (%) (HEK-293T; [5]): 13.6% and 52.54% | Population Tubulin-Different-Phenotype (%) (HEK-293T; [5]): 3.04% and 89.36% | Total Cell Count (HEK-293T; [5]): 942 and 118 | Population Mitochondria Different-Phenotype (%) (U2OS; [1]): 1.91% and 57.66% | Population Mitochondria Different-Phenotype (%) (U2OS; [3]): 1.94% and 76.99% | Population Membrane Permeable-Phenotype (%) (U2OS; [5]): 3.06% and 29.73% | Population Mitochondria Different-Phenotype (%) (U2OS; [5]): 1.22% and 57.66% | Population Tubulin-Different-Phenotype (%) (U2OS; [5]): 12.65% and 66.67% | Total Cell Count (U2OS; [5]): 614 and 175 | Population Mitotic Cells (%) (U2OS; [6]): 26.71% and 8.79%

CC(C)Oc1ccc(F)c(-c2cnc(N)c(C(=O)Nc3cnccc3N3CCC[C@@H](C(=O)O)C3)n2)c1
Population Apoptotic (%) (Fibroblast; [3]): 6.45% and 28.57% | Population Healthy Nuclei (%) (HEK-293T; [1]): 58.1% and 16.34% | Population Tubulin-Different-Phenotype (%) (HEK-293T; [1]): 7.69% and 28% | Population Healthy Nuclei (%) (HEK-293T; [2]): 49.25% and 14.29% | Population Healthy Nuclei (%) (HEK-293T; [3]): 79.57% and 26.14% | Population Pyknosed Nuclei (%) (HEK-293T; [3]): 19.65% and 64.71% | Total Cell Count (HEK-293T; [3]): 509 and 153 | Population Tubulin-Different-Phenotype (%) (HEK-293T; [4]): 67.08% and 21.15% | Population Tubulin-Different-Phenotype (%) (HEK-293T; [5]): 6.85% and 43.3% | Total Cell Count (HEK-293T; [5]): 912 and 188 | Population Mitochondria Different-Phenotype (%) (U2OS; [2]): 0.86% and 19.71% | Population Membrane Permeable-Phenotype (%) (U2OS; [4]): 2.41% and 17.14% | Population Mitochondria Different-Phenotype (%) (U2OS; [4]): 0.27% and 20.71% | Population Mitochondria Different-Phenotype (%) (U2OS; [6]): 1.1% and 15.11%
